Out of some 360,000 compounds screened, about 7,500 (2.1%) were called active. The shares of active, inactive and inconclusive entries below differ from those in the screen. Calls come from the whole dose curve; as a rule, active = well fitted cell-killing curve with a large enough effect; inconclusive = small, poorly fitted or top-dose-only effect, or effect the other way, or another doubt; inactive = no such curve, though single readings can be large or run the other way. Potencies of inconclusive entries are left out as doubtful fits.
assay: qHTS for induction of synthetic lethality in tumor cells producing 2HG: qHTS for the HT-1080-IDH1KD cell line; settings: HT-1080 IDH1 knockdown viability, ATP luminescence, 48 h; activity, negative = toxicity: at 46.1 µM (top of the series) unless noted;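 for activity, negative = toxicity: 0% = DMSO wells and -100% = cell-free medium wells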
How it was run: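 CellTiter-Glo luminescence after 48 h compound exposure at 37 degrees C of IDH1-knockdown HT-1080 cells in 5% FBS RPMI. %Activity scaled between DMSO wells and cell-free media wells, with curves fitted and assigned curve classes.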
Potency is the fitted concentration of half-maximal effect; tags give direction and shape of the fitted curve.

SMILES	Potency	activity, negative = toxicity
O=C(O)CSc1ncnc2scc(-c3ccccc3)c12	inactive	
CCc1nc2c(OCC3CCCCC3)cccn2c1N(C)C(=O)c1ccc(C)cc1	inconclusive [cytotoxic, single point]	
CSc1nnc(C)c(=O)n1COC(=O)c1ccc(S(=O)(=O)N2CCCC2)cc1	inactive	
CCc1cc(C(=O)N/N=C/c2ccc(OC)cc2)c2ccccc2n1	inconclusive [cytotoxic, partial curve]	
Cc1ccc(-c2nnc(Sc3nc4ccccc4o3)c3ccccc23)cc1	active: 11.2 µM	
COc1cccc(CNCCc2c[nH]c3ccccc23)c1OCc1ccccc1	active: 16.4 µM	
COC(=O)c1cccc(Nc2c3c(nc4ccccc24)CCC3)c1	active: 16.4 µM	
CCn1ccnc1CN(C)Cc1c(C(=O)N2CCCCCCC2)nc2ccc(Cl)cn12	inactive	
CCN(CC)CCN1C2=C(C(=O)CC(C)(C)C2)C(c2cccc(F)c2)C2=C1CC(C)(C)CC2=O	inactive	
Cc1ccc(NCC(=O)N/N=C\C(Br)=C\c2ccccc2)cc1	active: 15.8 µM	
Cc1onc(-c2ccccc2Cl)c1C(=O)Oc1cc(N)n(S(=O)(=O)c2ccc(F)cc2)n1	inconclusive [cytotoxic, single point]	
Cn1c2ccccc2c2n[nH]c(=S)nc21	inactive	
O=S(=O)(Nn1cnnc1)c1ccc(F)cc1	inactive	
COc1ccc(Cn2c(=O)cc(N)n(-c3ccccc3C)c2=O)cc1	active: 16.4 µM	
CC1CCc2nc(/C(C#N)=C/c3cccnc3)sc2C1 (centres undefined)	inconclusive [cytotoxic, single point]	
CCCOc1ccc(-c2nc(C#N)c(NCCCn3ccnc3)o2)cc1	inconclusive [cytotoxic, single point]	
Cc1[nH]n(-c2ccccc2)c(=O)c1/C=N/NC(=O)c1ccccc1F	inconclusive [cytotoxic, partial curve]	
COc1ccc(/C=C2\N=C(SC)SC2=O)cc1OC	inactive	
CCn1c(=O)c2sccc2n(CC(=O)NCCC2=CCCCC2)c1=O	inconclusive [cytotoxic, single point]	
O=C(Nc1cccc(NC(=O)c2cccs2)c1)c1ccc2c(c1)OCCO2	inactive	
O=C1/C(=C\c2cccs2)N=C(c2cccs2)N1Nc1ccccc1	inactive	
O=C(N/N=C/c1ccc(OC(=O)c2ccccc2Cl)cc1)c1cc(O)cc(O)c1	inconclusive [cytotoxic, single point]	
COc1ccc(C)cc1NC(=O)CNC(c1ccccc1)c1ccc(C)cc1 (centres undefined)	active: 5.17 µM	
Clc1ccc2nc(-c3ccco3)c(Cc3ccsc3)n2c1	inconclusive [cytotoxic, single point]	
COc1ccc(CN2C=C3C(=O)C(C)(OC(=O)CCc4ccccc4)C(=O)C=C3C=C2c2ccc(C#N)cc2)cc1 (centres undefined)		inconclusive: 3.78%

SMILES	Potency	activity, negative = toxicity
Fc1ccc(C(CCNCc2cccs2)c2ccco2)cc1 (centres undefined)	inconclusive [cytotoxic, partial curve]	
COCCN1C[C@@H](CO)O[C@@H](n2cnc3c(NCCCO)ncnc32)C1	inconclusive [rising, partial curve, poor fit]	
COc1ccc(NS(=O)(=O)c2cc3c4c(c2)CCN4C(=O)CC3)c(OC)c1	inactive	
Cc1cc(/C=C2/C(=O)NN(c3ccccc3)C2=O)c(C)n1-c1ccc(O)cc1	inconclusive [cytotoxic, single point]	
C=CC[C@@H](Cc1ccc(F)cc1)C(=O)OC[C@@H]1CCCN1C(=O)[C@H](CC=C)CC(=O)NCCO	inactive	
Clc1ccc(OCCN2CCCCC2)c(Cl)c1	inconclusive [cytotoxic, single point]	
CN1/C(=C\C(=O)CN2C(=O)NC3(CCCCCC3)C2=O)C(C)(C)c2ccccc21	inconclusive [cytotoxic, single point]	
CCOC(=O)c1c(NC(=O)COc2cccc3c2CCN(C)C3=O)sc2c1CCC2	inconclusive [cytotoxic, partial curve]	
O=S(=O)(c1ccc(Cl)c2ccccc12)N1CCCC1	inactive	
COc1cc(C(=O)Nc2ccc(NC(=O)C3CCCCC3)nc2)cc(OC)c1OC	inconclusive [cytotoxic, single point]	
Cc1ccccc1C(=O)Nc1cccc(C(=O)N/N=C/c2cc(Cl)cc([N+](=O)[O-])c2O)c1	inconclusive [cytotoxic, single point]	
Cn1c(=O)c2c(ncn2CC(=O)N2CCN(c3ccccc3F)CC2)n(C)c1=O	inactive	
O=C1N/C(=N\N=C\c2cccs2)SC1Cc1ccc(Cl)cc1Cl (centres undefined)		inconclusive: 3.38% [cytotoxic]
CC(C)[C@@H](CO)NS(=O)(=O)c1ccc(Br)cc1F	inactive	
O=C(NCc1cccnc1)c1c(O)c2cccc3c2n(c1=O)CCC3	inconclusive [cytotoxic, partial curve, poor fit]	
C/C(CC1CC(C)OC1=O)=N\NC(N)=S (centres undefined)	inactive	
Cc1ccc(S(=O)(=O)NCCNC(=O)CN2CCOCC2)cc1	inactive	
N#CC1=C(N)Oc2c(ccc3ccccc23)C1c1cccs1 (centres undefined)	active: 1.26 µM	
O=C(Nc1ccc(F)c(Cl)c1)Nc1csc2ccccc12	active: 6.51 µM	
CCc1cccc(CC)c1NC(=O)CSc1nc2ccc(N3C(=O)C4C(C3=O)[C@H]3C=C[C@@H]4C3)cc2s1 (some centres undefined)	active: 25.9 µM	
COc1cc2ccc(=O)oc2c(O)c1OCC=C(C)C	inconclusive [cytotoxic, single point]	
CN(C)CCNC(=O)c1ccc(COc2ccc(Cl)cc2Cl)cc1	inconclusive [cytotoxic, single point]	
CCN(Cc1ccccc1OC)CC1CCCN(CCc2cccc(OC)c2)C1 (centres undefined)	inconclusive [cytotoxic, single point]	
Cc1cc(C)c2c(=O)n(CC(=O)Nc3cccc(Cl)c3C)sc2n1	inconclusive [cytotoxic, single point]	
